Reference: paper PMC6919601, “Identification of Plasmodium dipeptidyl aminopeptidase allosteric inhibitors by high throughput screening” (PLoS ONE, 2019)
Hit rate of the full screen: of about 110,000 compounds, about 230 (0.21%) showed an effect of 50% or more. The list shows a part of the results.

target: DPAP1 (Plasmodium falciparum, UniProt Q8IIJ9); assay: primary screen, percent inhibition; read by cleavage of a fluorogenic dipeptide substrate; higher = more effect of the substance; set-up: species or system P. falciparum D10 trophozoite lysates; single well
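Note: 30 min substrate incubation versus DMSO and 10 µM JCP410 controls.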

Chain of DPAP1 (Q8IIJ9 whole entry, looked up): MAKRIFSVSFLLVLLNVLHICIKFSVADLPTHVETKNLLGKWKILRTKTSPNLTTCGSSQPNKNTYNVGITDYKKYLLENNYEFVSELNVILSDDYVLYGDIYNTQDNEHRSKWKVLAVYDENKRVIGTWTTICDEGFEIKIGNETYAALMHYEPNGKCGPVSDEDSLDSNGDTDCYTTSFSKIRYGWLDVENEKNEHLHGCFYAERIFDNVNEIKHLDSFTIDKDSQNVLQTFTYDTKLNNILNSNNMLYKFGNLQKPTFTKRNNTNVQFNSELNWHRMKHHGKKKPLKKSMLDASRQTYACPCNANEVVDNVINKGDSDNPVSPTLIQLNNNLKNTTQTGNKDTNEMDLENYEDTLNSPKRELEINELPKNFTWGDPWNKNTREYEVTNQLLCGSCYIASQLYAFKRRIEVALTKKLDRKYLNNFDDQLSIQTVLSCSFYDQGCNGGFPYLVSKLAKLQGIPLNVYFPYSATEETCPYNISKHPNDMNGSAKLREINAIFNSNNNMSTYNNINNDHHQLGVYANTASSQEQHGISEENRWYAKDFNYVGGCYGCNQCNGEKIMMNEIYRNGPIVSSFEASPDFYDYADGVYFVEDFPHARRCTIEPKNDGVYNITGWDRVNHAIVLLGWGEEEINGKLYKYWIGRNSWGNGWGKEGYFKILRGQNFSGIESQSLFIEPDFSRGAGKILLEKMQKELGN

Compared with Cc1sc(NC(=O)c2cccc(Br)c2)c(C(=O)O)c1C, CC(=O)c1c(C(C)=O)c(C)n(-c2ccc(Br)cc2)c1C is higher in “% Inhibition @ 10 uM” value: -5.29% for the first, 2.62% for the second.

First: Cc1ccc(C)c(Cn2c(=O)cc(-c3ccccc3)c3c(C)nn(C)c32)c1
Second: COc1ccc(-c2nnc3sc(-c4ccccc4)cc(=O)n23)cc1
The “% Inhibition @ 10 uM” value of the first is lower: -1.15% for the first, 6.17% for the second.

Compared with O=S(=O)(Nc1ccc(Br)cc1)c1ccc(Cl)cc1, CC(C)Cc1nnc(NS(=O)(=O)c2ccc(Cl)cc2)s1 is higher in “% Inhibition @ 10 uM” value: -0.999% for the first, 0.561% for the second.

First: CC1=C(C#N)C(c2ccc(C)cc2)C2=C(O)c3ccccc3C2=N1 (stereo not shown)
Second: Cc1ccc(-c2[nH]nc3c2C(c2ccccc2C)C(C#N)=C(N)O3)cc1 (stereo not shown)
The “% Inhibition @ 10 uM” value of the first is lower: -3.85% for the first, 1.03% for the second.

First: CC(C)(C)c1ccc(C(=O)N[C@@H](Cc2c(F)cccc2F)C(=O)NCC#N)cc1
Second: N#CCNC(=O)C(CCc1c(F)cccc1F)NC(=O)OCc1ccccc1 (stereo not shown)
The “% Inhibition @ 10 uM” value of the first is lower: -5.2% for the first, -1.5% for the second.

Compared with COc1ccc(CCn2c(=O)c(C#N)cc3c(=O)n4cccc(C)c4nc32)cc1OC, CCCc1cc(O)n2nc(C)c(-c3ccc(OC)c(OC)c3)c2n1 is higher in “% Inhibition @ 10 uM” value: -9.82% for the first, -1.11% for the second.

Going from Cc1ccc(CNC(=O)CCNS(=O)(=O)c2cccs2)cc1 to COC(=O)c1cc(S(=O)(=O)NCCc2ccc(C)cc2)c[nH]1, the “% Inhibition @ 10 uM” value falls from -4.65% to -5.93%.

Going from C=CCNC(=O)c1ccccc1C(=O)Nc1cccc2ccccc12 to CCOc1ccccc1NC(=O)c1ccccc1N(C)S(=O)(=O)c1ccc(C)cc1, the “% Inhibition @ 10 uM” value rises from -6.52% to 0.316%.

Going from O=C(NCc1ccccn1)c1ccc2ccccc2n1 to O=C(c1ccccc1F)N(Cc1ccccc1)c1ccccn1, the “% Inhibition @ 10 uM” value rises from -4.91% to 3.53%.

First: COc1ccccc1CNC(=O)c1ccc2c(Cl)c3c(nc2c1)CCCC3
Second: COc1ccccc1C(=O)n1nc(-c2ccco2)nc1NCc1ccccc1Cl
The “% Inhibition @ 10 uM” value of the first is higher: 4.91% for the first, -5.08% for the second.

Compared with Cc1cc(NC(=O)CSc2nc3nccnc3c(=O)n2CCc2ccccc2)[nH]n1, CC(C)Oc1ccccc1NC(=O)CSc1nc2ccccc2c(=O)n1C is lower in “% Inhibition @ 10 uM” value: 2.25% for the first, 2.22% for the second.

First: COc1cc(OC)cc(C(=O)Nc2ccc(C)cc2)c1
Second: COc1cc(OC)cc(C(=O)Nc2cccnc2Cl)c1
The “% Inhibition @ 10 uM” value of the first is higher: 2.48% for the first, -2.32% for the second.

Compared with COc1ccc(Br)cc1/C=C1\C(=O)ON=C1c1ccccc1, COc1cccc(-c2nc(-c3ccncc3)no2)c1 is lower in “% Inhibition @ 10 uM” value: -2.37% for the first, -9.52% for the second.

Compared with CCC(C(=O)NCc1ccc(C)cc1)n1ncn2c(cc3cc(C)ccc32)c1=O (stereo not shown), COC(=O)c1sc(N2C(=O)c3oc4ccc(C)cc4c(=O)c3C2c2ccc(C)cc2)nc1C (stereo not shown) is lower in “% Inhibition @ 10 uM” value: -0.281% for the first, -5% for the second.

First: O=C(O)C1c2ccccc2C(=O)N(C2CC2)C1c1ccccc1O (stereo not shown)
Second: CC(C)Cn1cc(NC(=O)N2CCC(c3ccccc3)C2)c2ccccc2c1=O (stereo not shown)
The “% Inhibition @ 10 uM” value of the first is higher: -2.65% for the first, -7.93% for the second.

Compared with Cc1cccc(OCc2nn3c(-c4ccncc4)nnc3s2)c1, Cc1cccc(OCC(=O)Oc2ccc3c(C)cc(=O)oc3c2)c1 is lower in “% Inhibition @ 10 uM” value: 7.5% for the first, -4.06% for the second.

First: N=C(NOC(=O)/C=C/c1ccccc1Cl)c1ccncc1
Second: Cn1c2ccccc2c2nnc(SCC(=O)c3ccccc3)nc21
The “% Inhibition @ 10 uM” value of the first is higher: -1.86% for the first, -4.7% for the second.

First: CCOc1ccc(-c2nc(C)sc2CC(=O)O)cc1
Second: CCCOc1ccc(-c2nc3ccccc3c(C(=O)O)c2C)cc1
The “% Inhibition @ 10 uM” value of the first is lower: -3.53% for the first, 0.64% for the second.

Compared with COc1cc(NC(=O)COc2cccc(Cl)c2)cc(OC)c1OC, COc1cc(C(=O)N2CCCCC2)cc(OC)c1OC is lower in “% Inhibition @ 10 uM” value: 1.65% for the first, -7.5% for the second.

Compared with COc1ccc(NS(=O)(=O)CC(C)C)c(OC)c1, CCCCN(Cc1cc2cc(OC)ccc2nc1O)S(C)(=O)=O is higher in “% Inhibition @ 10 uM” value: -2.35% for the first, -0.671% for the second.

First: CC1(C)CC(=O)C2=C(C1)OC1=C(C(=O)CC(C)(C)C1)C2c1cccc(O)c1
Second: CC1(C)CC(=O)C2=C(C1)OC1=C(C(=O)CC(C)(C)C1)C2c1ccccc1
The “% Inhibition @ 10 uM” value of the first is higher: 0.98% for the first, -2.15% for the second.

Compared with c1cc(-c2nc3c4c5c(sc4ncn3n2)CCCC5)ccn1, CCc1ccc(OCC(=O)Nc2sc3c(c2C(N)=O)CCC3)cc1 is higher in “% Inhibition @ 10 uM” value: 0.512% for the first, 10.9% for the second.

First: COC(=O)c1c(C)nc2n(C)c3ccccc3n12
Second: Cc1ncc(C)[n+]2c(Nc3ccccc3)nn(C)c12
The “% Inhibition @ 10 uM” value of the first is higher: 5.16% for the first, -2.32% for the second.

Going from O=C(O)c1c(CNCCc2ccccc2Cl)c2ccccc2n1Cc1ccc(F)cc1 to O=C(NCCc1ccsc1)c1cc2c(Cl)nc3ccccc3c2s1, the “% Inhibition @ 10 uM” value rises from -5.93% to 0.232%.

Going from COc1ccc(N2CCN(C(C)Cc3cccc(C(F)(F)F)c3)CC2)cc1 (stereo not shown) to COc1ccc(N2CCN(C(=O)CN(C)S(=O)(=O)c3cc(Cl)ccc3Cl)CC2)cc1, the “% Inhibition @ 10 uM” value rises from -5.31% to -0.318%.

Compared with CCCOc1ccc(C2C(C(=O)OC)=CN(C)C=C2C(=O)OC)cc1OC, CCCC1=C(C(=O)OCC)C(c2cccc(OC)c2OC)NC(=O)N1 (stereo not shown) is lower in “% Inhibition @ 10 uM” value: 3.45% for the first, 0.0538% for the second.

First: COc1cc(-c2nnc3sc(C4COc5ccccc5O4)nn23)cc(OC)c1OC (stereo not shown)
Second: COc1ccc(-c2nnc3c4ccccc4c(C)nn23)cc1S(=O)(=O)N1CCN(C)CC1
The “% Inhibition @ 10 uM” value of the first is lower: 1.25% for the first, 3.25% for the second.

Going from N#CCNC(=O)[C@H](CCCNC(=N)N)NC(=O)c1ccc(-c2csc(Nc3ccncc3)n2)cc1 to N#Cc1ccc(Oc2ccc(C(=O)NCC(=O)O)cc2)cc1, the “% Inhibition @ 10 uM” value falls from 1.7% to -9.72%.

Compared with CCCNC(=O)CN(c1ccccc1F)S(=O)(=O)c1ccc(C)cc1, CCN(CC)S(=O)(=O)c1ccc(C(=O)Nc2ncn(Cc3ccccc3)n2)cc1 is higher in “% Inhibition @ 10 uM” value: 1.69% for the first, 5.94% for the second.

First: COc1cc(CN2CCN(c3cccc(Cl)c3)CC2)ccc1O
Second: COc1ccc(CN2CCN(c3ccc(C)cc3)CC2)c(C)c1C
The “% Inhibition @ 10 uM” value of the first is lower: -1.77% for the first, 1.57% for the second.

Compared with CCOC(=O)N1CCN(c2c(N(C)Cc3ccccc3)c(=O)c2=O)CC1, Cc1ccc(Cl)cc1NC(=O)CN1CCN(Cc2ccccc2)CC1 is lower in “% Inhibition @ 10 uM” value: 5.09% for the first, 3.81% for the second.

First: Cc1nc(CC(O)C(Cl)(Cl)Cl)c2cc(C)oc2n1 (stereo not shown)
Second: Cc1cc(C(F)(F)F)nc2snc(Br)c12
The “% Inhibition @ 10 uM” value of the first is lower: 0.64% for the first, 2.31% for the second.

First: CCCCNC(=O)CN(c1cc(C(F)(F)F)ccc1Cl)S(C)(=O)=O
Second: CCCCNC(=O)CN1C(=O)C2CCCN2c2ncc(Cl)cc21 (stereo not shown)
The “% Inhibition @ 10 uM” value of the first is lower: 2.22% for the first, 2.27% for the second.

Compared with Cc1noc2ncnc(NCCN(C)Cc3ccccc3)c12, CCOC(=O)c1sc(NCCOCc2ccccc2)nc1C is higher in “% Inhibition @ 10 uM” value: -6.93% for the first, 3.59% for the second.

First: CCCCNC(=S)N1CCn2cccc2C1c1cccnc1 (stereo not shown)
Second: Cc1ccc2nc(O)c3cc(C(=O)NCc4cccnc4)sc3c2c1
The “% Inhibition @ 10 uM” value of the first is lower: -2.38% for the first, 4.88% for the second.

Going from COc1c(C)cccc1C1=N/C(=C\c2ccc(Cl)cc2)C(=O)O1 to O=C(c1ccccc1)c1cnc2cc3c(cc2c1S(=O)(=O)c1ccc(Cl)cc1)OCCO3, the “% Inhibition @ 10 uM” value falls from 10.7% to -6.42%.

Compared with Cc1cc2c(c(=O)o1)C(c1cc(Br)cs1)C(C#N)=C(N)O2 (stereo not shown), Cc1cc(C)c2c(-n3cccc3)c(C(=O)NCC3CCCO3)sc2n1 (stereo not shown) is higher in “% Inhibition @ 10 uM” value: 1.08% for the first, 3.87% for the second.

Compared with C=CCn1c2ccccc2n2cc(-c3ccc4c(c3)OCO4)nc12, COc1ccc(-c2cn3c(n2)sc2cc(C(=O)NCCN4CCOCC4)ccc23)cc1 is lower in “% Inhibition @ 10 uM” value: 3.74% for the first, 1.36% for the second.

Compared with O=C(Nc1ccccc1)N1CCC(S)=Nc2ccccc21, O=C(NCCCc1ccccc1)C1=CCN(S(=O)(=O)c2ccc(Br)cc2)CC1 is lower in “% Inhibition @ 10 uM” value: 5.49% for the first, 1.93% for the second.

First: CC1CCN(c2ccc3nnc(CCC(=O)NCCCOC(C)C)n3n2)CC1
Second: Cc1cc(=O)n2nc(N3CCC(C(=O)NC(C)c4ccccc4)CC3)sc2n1 (stereo not shown)
The “% Inhibition @ 10 uM” value of the first is higher: 0.0147% for the first, -3.79% for the second.

Compared with N#CCNC(=O)C(CS(=O)(=O)Cc1ccccc1C(F)(F)F)CS(=O)(=O)Cc1ccccc1C(F)(F)F, CN(C)S(=O)(=O)c1ccccc1S(=O)(=O)NC(=O)Nc1ncc(-c2ccccc2)cn1 is higher in “% Inhibition @ 10 uM” value: -6.98% for the first, 0.989% for the second.

Compared with CCOc1cc(-c2cc(-c3ccc(N)cc3)nc(N)c2C#N)ccc1O, COc1ccc(CO/C(O)=C2\C(C)=NC3=C(C(=O)CCC3)C2c2ccc(O)c(OC)c2)cc1 (stereo not shown) is lower in “% Inhibition @ 10 uM” value: 3.26% for the first, -0.053% for the second.

First: CCN1CCC(NCC(C)(C)CN(C)C)CC1
Second: CCOC(=O)N1CCC(N2CCCCCCC2)CC1
The “% Inhibition @ 10 uM” value of the first is higher: -0.0908% for the first, -5.11% for the second.

Going from O=C(COc1ccc(S(=O)(=O)NCc2ccccc2)cc1)NC1CCCC1 to CCC(Cc1ccccc1)NC(=O)c1cc(S(=O)(=O)N2CCCC2)cn1C (stereo not shown), the “% Inhibition @ 10 uM” value falls from 1.63% to -0.0652%.

Going from C/C(=N/S(=O)(=O)c1ccc(C)cc1)N1CCN(S(=O)(=O)c2ccc(C)cc2)C1C(C)C (stereo not shown) to CCCCN(CC)CCNC(=O)c1ccc(CS(=O)(=O)c2ccc(OC)cc2)o1, the “% Inhibition @ 10 uM” value falls from 0.408% to -1.46%.

Going from CCCCC(NC(=O)OCc1ccccc1)C(=O)NC(CCCCNC(=O)OCc1ccccc1)C(=O)CO (stereo not shown) to O=C(CCNS(=O)(=O)c1cccc2nsnc12)NCc1ccc2c(c1)OCO2, the “% Inhibition @ 10 uM” value rises from 2.22% to 2.74%.

Going from CCN(CCN(C)C)Cc1ccccc1C(F)(F)F to CCc1nnc(NC(=O)COc2ccc(C)cc2)s1, the “% Inhibition @ 10 uM” value rises from -4.75% to 7.73%.

Compared with CN1C(=O)N(C)C2(C)CC1(C)N(C)C(=O)N2C, CC1(C)CC(N2CN(C3CCCCC3)CC2=O)CC(C)(C)N1 is lower in “% Inhibition @ 10 uM” value: 2.26% for the first, -5.29% for the second.

Going from COc1ccc(N2C(=O)C3C4C=CC(C4)C3C2=O)cc1 (stereo not shown) to Cn1c(=O)c2nc(Cl)c(-c3ccccc3)nc2n(C)c1=O, the “% Inhibition @ 10 uM” value falls from -6.82% to -8.4%.

Going from Cc1cc(C(=O)NCc2cccs2)[nH]n1 to CC1(C)CC(CCNC(=O)c2ccc(-n3cnnn3)cc2)CC(C)(C)N1, the “% Inhibition @ 10 uM” value falls from 2.12% to -1.24%.
